# Source: the supplement of paper PMC8728848
# This is one part of the list.
# B1: Blon2468mut (Bifidobacterium longum) (protein)
# chain: MTFIKQMMPRYVASMTAGIVAAAMAATCAFAPVANADAVSPTQETIQSTGRHFMVYYRAWRDVTMKGVNTDLPDDNWISMYDIPYGVDVVNIFSYVPSGQEEQAQPFYDKLKSDYAPYLHSRGIKLVRGIDYTGVAVNGFRTFMKEQNKTESEATEADYDAYAKQVIDKYMISVGLDGLDIDMQAHPNDADVKISDNVIRALSKHIGPKSAKPDTTMFLYDTNGSYLNPFKNVAECFDYVAYQQYGSSSDRTARAAADYQPYIGNEFVPGLTFPEEGDMNNRWYDATEPYEESHFYQVASYVREHNLGGMFVYALDRDGRNYDEDLRRIVPSNLLWTKTAIAESEGMALDTAKTAANHYLDRMSLRQVIDDNAASADKARDMVGKAANLYETNKAVLGGDYGEGFSNTYDPTLEAGLLGIDISVLQQQIDKSSEIIGADTAESDAKTALRMARDAAIDGLTGKIYTADQVSAWSQALKAALDATVPVPTPDSTDQNGNRDKVTNHKVQGQPKQLSATGISTDIIVAVGVTLAIAGVALSLSRKLS
# Columns and labels:
# Experiment in all cases: glycan array binding signal (z-score within array); higher = stronger binding
# Details in all cases: glycan notation: IUPAC condensed, linker removed
# [1] = target: GalNAc(b1-4)GlcNAc(b1-2)Man(a1-3)[GalNAc(b1-4)GlcNAc(b1-2)Man(a1-6)]Man(b1-4)GlcNAc(b1-4)GlcNAc
# How it was run: (§1)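 The binding signal is a Z-score computed within each array. Data were drawn from 3228 arrays in the Consortium for Functional Glycomics database, restricted to those with a known protein sequence. Scores were averaged over arrays of the same protein sequence at different concentrations or buffers, and over linkers, and negative values can be taken as non-binding.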
# [2] = target: GalNAc(b1-4)GlcNAc(b1-3)GalNAc(b1-4)GlcNAc
# How it was run: as §1
# GalNAc(b1-4)GlcNAc6S = target: GalNAc(b1-4)GlcNAc6S
# How it was run: as §1
# GalNAc(b1-6)GalNAc = target: GalNAc(b1-6)GalNAc
# How it was run: as §1
# GalNAc3S(b1-4)GlcNAc = target: GalNAc3S(b1-4)GlcNAc
# How it was run: as §1
# GalNAc3S(b1-4)GlcNAc3S = target: GalNAc3S(b1-4)GlcNAc3S
# How it was run: as §1
# [3] = target: GalNAc3S(b1-4)[Fuc(a1-3)]GlcNAc
# How it was run: as §1
# GalNAc4S6S(b1-4)GlcNAc = target: GalNAc4S6S(b1-4)GlcNAc
# How it was run: as §1
# GalNAc6S(b1-4)GlcNAc = target: GalNAc6S(b1-4)GlcNAc
# How it was run: as §1
# Glc(a1-4)Glc = target: Glc(a1-4)Glc
# How it was run: as §1
# [4] = target: Glc(a1-4)Glc(a1-4)Glc(a1-4)Glc
# How it was run: as §1
# Glc(a1-6)Glc(a1-6)Glc = target: Glc(a1-6)Glc(a1-6)Glc
# How it was run: as §1
# [5] = target: Glc(a1-6)Glc(a1-6)Glc(a1-6)Glc
# How it was run: as §1
# Glc(b1-4)Glc = target: Glc(b1-4)Glc
# How it was run: as §1
# Glc(b1-6)Glc = target: Glc(b1-6)Glc
# How it was run: as §1
# GlcA(b1-3)Gal = target: GlcA(b1-3)Gal
# How it was run: as §1
# GlcA(b1-3)GlcNAc = target: GlcA(b1-3)GlcNAc
# How it was run: as §1
# GlcA(b1-6)Gal = target: GlcA(b1-6)Gal
# How it was run: as §1
# [6] = target: GlcA3S(b1-3)Gal(b1-4)GlcNAc(b1-2)Man
# How it was run: as §1
# [7] = target: GlcA3S(b1-3)Gal(b1-4)GlcNAc(b1-3)Gal(b1-4)Glc
# How it was run: as §1
# [8] = target: GlcNAc(a1-3)Gal(b1-4)GlcNAc
# How it was run: as §1
# [9] = target: GlcNAc(a1-4)Gal(b1-3)GlcNAc
# How it was run: as §1
# [10] = target: GlcNAc(a1-4)Gal(b1-4)GalNAc
# How it was run: as §1
# [11] = target: GlcNAc(a1-4)Gal(b1-4)GlcNAc
# How it was run: as §1
# [12] = target: GlcNAc(a1-4)Gal(b1-4)GlcNAc(b1-3)Gal(b1-4)Glc
# How it was run: as §1
# [13] = target: GlcNAc(a1-4)Gal(b1-4)GlcNAc(b1-3)Gal(b1-4)GlcNAc
# How it was run: as §1
# [14] = target: GlcNAc(a1-4)Gal(b1-4)GlcNAc(b1-3)Gal(b1-4)GlcNAc(b1-3)Gal(b1-4)GlcNAc
# How it was run: as §1
# [15] = target: GlcNAc(a1-4)Gal(b1-4)GlcNAc(b1-3)Gal(b1-4)[Fuc(a1-3)]GlcNAc(b1-3)Gal(b1-4)[Fuc(a1-3)]GlcNAc
# How it was run: as §1
# [16] = target: GlcNAc(a1-6)Gal(b1-4)GlcNAc
# How it was run: as §1
# [17] = target: GlcNAc(b1-2)Gal(b1-3)GalNAc
# How it was run: as §1
binder,measurement,setting,value
B1,glycan array binding signal (z-score),[1],-0.082
same,glycan array binding signal (z-score),[2],-0.069
same,glycan array binding signal (z-score),GalNAc(b1-4)GlcNAc6S,-0.07
same,glycan array binding signal (z-score),GalNAc(b1-6)GalNAc,-0.055
same,glycan array binding signal (z-score),GalNAc3S(b1-4)GlcNAc,-0.043
same,glycan array binding signal (z-score),GalNAc3S(b1-4)GlcNAc3S,-0.082
same,glycan array binding signal (z-score),[3],-0.097
same,glycan array binding signal (z-score),GalNAc4S6S(b1-4)GlcNAc,-0.081
same,glycan array binding signal (z-score),GalNAc6S(b1-4)GlcNAc,-0.055
same,glycan array binding signal (z-score),Glc(a1-4)Glc,-0.069
same,glycan array binding signal (z-score),[4],-0.064
same,glycan array binding signal (z-score),Glc(a1-6)Glc(a1-6)Glc,-0.096
same,glycan array binding signal (z-score),[5],-0.086
same,glycan array binding signal (z-score),Glc(b1-4)Glc,-0.072
same,glycan array binding signal (z-score),Glc(b1-6)Glc,-0.029
same,glycan array binding signal (z-score),GlcA(b1-3)Gal,-0.037
same,glycan array binding signal (z-score),GlcA(b1-3)GlcNAc,-0.085
same,glycan array binding signal (z-score),GlcA(b1-6)Gal,-0.106
same,glycan array binding signal (z-score),[6],-0.046
same,glycan array binding signal (z-score),[7],-0.089
same,glycan array binding signal (z-score),[8],-0.064
same,glycan array binding signal (z-score),[9],-0.061
same,glycan array binding signal (z-score),[10],-0.094
same,glycan array binding signal (z-score),[11],-0.067
same,glycan array binding signal (z-score),[12],-0.074
same,glycan array binding signal (z-score),[13],-0.074
same,glycan array binding signal (z-score),[14],-0.074
same,glycan array binding signal (z-score),[15],-0.063
same,glycan array binding signal (z-score),[16],-0.051
same,glycan array binding signal (z-score),[17],-0.041
